Here are results for 55 compounds from paper PMC4336329 (PLoS ONE, 2015).

Each structure is given as a SMILES string. Hit rate of the full screen: of about 310,000 compounds, about 14,000 (4.5%) showed an effect of 50% or more. The effect is printed as a negative number. Some of the results follow.
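Note: peak tail current of the secondary pulse compared with the same well before compound.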

In this test the target is human ether-à-go-go-related gene (hERG) potassium channel (human, UniProt Q12809). Kind of test: primary screen, population patch clamp on CHO cells stably expressing hERG.
Chain of human ether-à-go-go-related gene (hERG) potassium channel (Q12809 whole entry, looked up): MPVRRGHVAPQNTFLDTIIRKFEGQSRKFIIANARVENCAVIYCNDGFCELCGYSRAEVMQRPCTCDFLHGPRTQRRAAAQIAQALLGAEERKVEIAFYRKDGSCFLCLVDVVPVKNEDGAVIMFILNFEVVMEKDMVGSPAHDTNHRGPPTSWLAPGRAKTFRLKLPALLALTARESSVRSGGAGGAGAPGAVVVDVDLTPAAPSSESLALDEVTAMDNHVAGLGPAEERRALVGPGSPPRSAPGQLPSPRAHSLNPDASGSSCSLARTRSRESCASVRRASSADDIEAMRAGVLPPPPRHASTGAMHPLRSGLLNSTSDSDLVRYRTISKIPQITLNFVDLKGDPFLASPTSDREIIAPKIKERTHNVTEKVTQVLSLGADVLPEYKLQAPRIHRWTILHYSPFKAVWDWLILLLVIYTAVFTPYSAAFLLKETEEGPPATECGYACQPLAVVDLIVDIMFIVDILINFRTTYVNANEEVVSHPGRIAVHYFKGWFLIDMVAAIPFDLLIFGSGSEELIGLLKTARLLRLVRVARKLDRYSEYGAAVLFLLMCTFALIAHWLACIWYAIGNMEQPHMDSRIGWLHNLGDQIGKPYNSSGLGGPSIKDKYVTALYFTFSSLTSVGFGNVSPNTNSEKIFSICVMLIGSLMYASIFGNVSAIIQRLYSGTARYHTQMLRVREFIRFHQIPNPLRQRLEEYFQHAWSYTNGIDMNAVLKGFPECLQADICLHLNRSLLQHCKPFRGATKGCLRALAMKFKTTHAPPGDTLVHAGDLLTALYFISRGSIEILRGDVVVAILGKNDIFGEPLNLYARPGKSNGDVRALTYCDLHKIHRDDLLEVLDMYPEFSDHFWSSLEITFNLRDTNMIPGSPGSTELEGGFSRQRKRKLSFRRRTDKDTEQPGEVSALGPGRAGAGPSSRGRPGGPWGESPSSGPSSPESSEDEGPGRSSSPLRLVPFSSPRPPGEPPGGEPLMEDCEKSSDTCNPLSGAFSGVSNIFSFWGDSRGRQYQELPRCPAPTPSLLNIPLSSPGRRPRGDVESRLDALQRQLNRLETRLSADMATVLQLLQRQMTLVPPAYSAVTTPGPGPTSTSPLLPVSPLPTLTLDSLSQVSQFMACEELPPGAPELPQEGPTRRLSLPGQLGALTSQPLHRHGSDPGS
Turning to `CCN(CC)CCNS(=O)(=O)c1ccc2c3c(cccc13)C(=O)N2`, the “hERG current change (%, negative = inhibition) at 10uM” value is recorded as 4.08%.
As for `O=C(CCCSc1nc2ccccc2[nH]1)NC1=NCCS1`, the “hERG current change (%, negative = inhibition) at 10uM” value is listed as -7.59%.
In the case of `Cc1ccc2c(c1)/C(=N/OS(=O)(=O)c1ccccc1)CCS2` it was -0.661%; in that of `COc1cc(C(=O)N(Cc2ccco2)Cc2cc3ccccc3[nH]c2=O)cc(OC)c1OC`, -19.9%; in that of `Cc1ccc(S(=O)(=O)N(C)c2ccc(C(=O)NCCc3ccccc3)cc2)cc1`, -6.94%.
As for `O=S(=O)(Nc1ncccn1)c1ccc(NS(=O)(=O)c2cc(Cl)ccc2Cl)cc1`, the “hERG current change (%, negative = inhibition) at 10uM” value amounted to 31.6%.
Then `CN1C(=O)S/C(=C\c2ccccc2OCc2ccc(C(=O)O)cc2)C1=O`, with 3.52%; and `CCOc1ccc(NC(=O)CC2SC(=O)N(c3ccccc3)C2=O)cc1` (stereo not shown), with 17.2%; and `COCCNC(=O)C(c1cccs1)N(C(=O)Cn1nnc2ccccc21)c1cccc(C(C)=O)c1` (stereo not shown), with 12.5%.
Then `CC(=O)N1CCc2c(sc(NC(=O)CS(=O)(=O)c3ccc(F)cc3)c2C#N)C1`, with -12.6%.
With `Cc1ccc(COc2ccsc2C(=O)NNC(N)=S)cc1`, the “hERG current change (%, negative = inhibition) at 10uM” value was found to be 19.9%.
Then `O=C(c1cc2sccc2n1Cc1ccccc1)N1CCc2ccccc21`, with -2.82%.
In the case of `O=C(c1cnc(-c2ccccc2)s1)c1ccc(Cl)cc1Cl` it was -7.87%; in that of `CC1(C)CC(=O)C2=C(C1)OC(N)=C(C#N)C21CCC2(CC1)OCCO2`, 6.25%; in that of `COc1ccc(CNC(=O)Nc2ccc([N+](=O)[O-])cc2)cc1`, 5.47%.
On to `Cn1c(=O)c2c(nc(CN3CCN(C(=O)c4ccco4)CC3)n2Cc2ccccc2F)n(C)c1=O`, for which the “hERG current change (%, negative = inhibition) at 10uM” value is given as -47.6%.
Then `O=C(Nc1ccc2c(c1)OCCO2)C1CCC1`, with 7.7%.
Then `O=C(COc1cccc2ccccc12)NNC(=O)Nc1ccccc1`, with 2.05%; and `CNC(=O)COc1ccc(S(=O)(=O)N2CCCC2)cc1`, with 18.1%.
As to `CC(C(=O)NCCS(=O)(=O)c1ccc(Cl)cc1)S(=O)(=O)c1ccccc1` (stereo not shown), the “hERG current change (%, negative = inhibition) at 10uM” value is recorded as -4.41%.
On to `Cc1cn(C(=O)c2ccccc2)c(=S)n1-c1ccc(Cl)cc1`, for which the “hERG current change (%, negative = inhibition) at 10uM” value was -9.79%.
`COc1ccc(CCn2c(=S)[nH]c3cc(C(=O)N4CCOCC4)ccc3c2=O)cc1OC`: the “hERG current change (%, negative = inhibition) at 10uM” value is listed as -6.76%.
In the case of `COc1ccccc1CNC(=O)C1CC2Cn3c(nc4cc(Cl)c(Cl)cc43)C2N1C` (stereo not shown), the “hERG current change (%, negative = inhibition) at 10uM” value was -65.4%.
Then `Cc1ccc(NC(=O)c2cc(S(=O)(=O)N3CCCC3)c[nH]2)c(C)c1`, with -11.8%; and `COC(C[C@H](O)C[C@H](O)[C@@H](C)OCc1ccccc1)OC`, with 14.3%.
As to `Cc1ccc(SCCC(=O)N/N=C/c2cccnc2)cc1`, the “hERG current change (%, negative = inhibition) at 10uM” value is -24.9%.
As for `O=c1o[nH]c(-c2ccccc2)c1C=Nc1ccc(Cl)cc1`, the “hERG current change (%, negative = inhibition) at 10uM” value is recorded as -5.87%.
In the case of `CCCCCn1c(NC(=O)c2ccco2)c(C(=O)OCC)c2nc3ccccc3nc21` it was -80.4%.
As for `COc1ccc(S(=O)(=O)Cc2ccccc2)cc1N`, the “hERG current change (%, negative = inhibition) at 10uM” value was -9.73%.
In the case of `COc1cccc(-c2nn(C)c3sc(C(=O)NCc4ccccn4)cc23)c1`, the “hERG current change (%, negative = inhibition) at 10uM” value is 0.494%.
In the case of `COC(=O)c1ccc(-c2ccc(/C=N/N3C(=O)C4C5C=CC(C6CC56)C4C3=O)o2)cc1` (stereo not shown) it was -2.94%; in that of `COCCNC(=O)c1ccc(CS(=O)(=O)c2cccc(C(F)(F)F)c2)o1`, 4.09%.
Then `CCC(C)[C@H](NC(=O)N1CC(=O)Nc2ccccc21)C(=O)N1CCC[C@@H]1C(=O)O` (stereo partly shown), with 13.5%.
Consider `O=c1oc(-c2ccccc2)nc2sc3c(c12)CCCC3`, for which the “hERG current change (%, negative = inhibition) at 10uM” value was 14.9%.
Then `O=C(c1ccco1)N1CCN(S(=O)(=O)c2ccc(F)cc2)CC1`, with -2.41%; and `Cc1ccc(-c2ccc(=O)n(CC(=O)Nc3cccc(C(=O)N4CCN(C)CC4)c3)n2)cc1`, with -9.15%; and `COc1ccc(Br)cc1S(=O)(=O)n1ccnc1`, with 23%.
In the case of `NS(=O)(=O)c1cc(Cl)c(Cl)c(S(N)(=O)=O)c1` it was 1.33%; in that of `Cc1cccc(NC(=S)N/N=C/c2c[nH]c3ccccc23)c1`, 6.08%; in that of `O=C(NNC(=O)C1CC1c1ccccc1)Nc1ccccc1` (stereo not shown), 6.07%.
Take `c1ccc(-c2nnc3ccc(N4CCC5(CC4)OCCO5)nn23)cc1`: the “hERG current change (%, negative = inhibition) at 10uM” value is reported as -46.8%.
As to `N#CC1=C(N)C(C#N)(C#N)[C@H](c2ccncc2)[C@H]2CC3(CC=C12)OCCO3`, the “hERG current change (%, negative = inhibition) at 10uM” value was determined as 2.57%.
In the case of `COc1ccc2nc(NC(=O)CSc3cn[nH]n3)sc2c1` it was 4.71%; in that of `COc1ccc(-n2c(-c3ccccc3)nc(=S)c3c2CCCC3)cc1`, 1.33%.
Turning to `O=C(Cc1ccc(Cl)cc1)Nc1ccccc1N1CCOCC1`, the “hERG current change (%, negative = inhibition) at 10uM” value turned out to be 5.94%.
Then `COc1ccc(OCc2cc(C(=O)N(C)Cc3cc(C)no3)no2)c(Cl)c1`, with -12.5%; and `Nc1cccc(S(=O)(=O)NC2=NCCC2)c1`, with 20.6%; and `COc1ccc(N2CCN(CC(=O)Nc3ccc(SC(F)F)cc3)CC2)cc1`, with -76.6%.
Consider `NC(=O)COC(=O)c1ccccc1Nc1ccc(SC(F)F)cc1`, for which the “hERG current change (%, negative = inhibition) at 10uM” value is recorded as -40.6%.
Take `CCCCn1c(=O)c(C(=O)NCc2ccco2)c(O)c2ccccc21`: the “hERG current change (%, negative = inhibition) at 10uM” value was -0.439%.
For `Cn1c(-c2cnn(-c3ccccc3)c2N)n[nH]c1=S`, the “hERG current change (%, negative = inhibition) at 10uM” value was determined as 11.8%.
As for `CCOC(=O)c1cc(CC)sc1NC(=O)CN1C(=O)C(=O)N(CC(C)C)C1=O`, the “hERG current change (%, negative = inhibition) at 10uM” value is reported as -4.75%.
In the case of `CC1Cc2cc(S(=O)(=O)N3CCCCC3)ccc2N1C(=O)C1CCC1` (stereo not shown) it was -15%.
Consider `COCCN1C=C2C(=O)C(C)(OC(=O)CCc3ccccc3)C(=O)C=C2C=C1c1ccc(C#N)cc1` (stereo not shown), for which the “hERG current change (%, negative = inhibition) at 10uM” value is -72.4%.
For `COC(=O)c1cn(NC(=O)/C=C/c2cc(OC)ccc2OC)c(=O)c2ccccc12`, the “hERG current change (%, negative = inhibition) at 10uM” value is on record as -4.33%.
